# Source: PubChem BioAssay AID488969 (Vanderbilt High Throughput Screening Facility, 2010)
# Over roughly 110,000 compounds, “z-score” has its median near -0.1; the highest 2% begin near 2. Some of the results follow.
# Biological target: Metabotropic glutamate receptor 8 (Rattus norvegicus) (UniProt P70579)
# Assay: mGluR8 Gi/Go-coupled signaling modulation – cell-based, rat, thallium flux, HTS, primary screen (AID 488969)
# Details: HEK293 rat mGluR8, GIRK (G protein-gated inwardly rectifying potassium channel) thallium flux, FluoZin2; at 10 µM; stronger effect = higher value; submaximal glutamate (EC20) added with thallium
# UniProt P70579, sequence (P70579 whole entry, looked up): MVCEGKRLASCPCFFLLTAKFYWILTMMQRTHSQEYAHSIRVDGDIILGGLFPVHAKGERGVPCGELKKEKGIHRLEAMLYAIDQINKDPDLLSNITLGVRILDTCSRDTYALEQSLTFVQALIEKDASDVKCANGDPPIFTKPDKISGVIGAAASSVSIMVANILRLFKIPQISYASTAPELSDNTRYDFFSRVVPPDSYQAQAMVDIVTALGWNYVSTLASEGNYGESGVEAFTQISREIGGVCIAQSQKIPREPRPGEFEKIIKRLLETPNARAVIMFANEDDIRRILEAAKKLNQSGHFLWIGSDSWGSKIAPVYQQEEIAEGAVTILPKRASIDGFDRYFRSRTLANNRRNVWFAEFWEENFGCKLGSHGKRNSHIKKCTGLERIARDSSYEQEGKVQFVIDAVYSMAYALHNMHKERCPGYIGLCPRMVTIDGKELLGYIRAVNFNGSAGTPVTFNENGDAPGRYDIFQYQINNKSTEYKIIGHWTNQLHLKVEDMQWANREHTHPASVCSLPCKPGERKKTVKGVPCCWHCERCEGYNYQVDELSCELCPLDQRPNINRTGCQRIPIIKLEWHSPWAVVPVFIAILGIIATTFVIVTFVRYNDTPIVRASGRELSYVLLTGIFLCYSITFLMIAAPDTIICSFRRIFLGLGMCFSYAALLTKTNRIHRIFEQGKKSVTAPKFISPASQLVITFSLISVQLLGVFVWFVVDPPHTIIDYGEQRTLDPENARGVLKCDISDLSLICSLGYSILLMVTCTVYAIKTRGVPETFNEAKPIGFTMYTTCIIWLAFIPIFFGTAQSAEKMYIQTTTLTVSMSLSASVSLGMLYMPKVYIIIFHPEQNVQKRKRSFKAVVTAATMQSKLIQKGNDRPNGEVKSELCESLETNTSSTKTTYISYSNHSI
row,SMILES,z-score
1,CC(C)CNC(=O)CN(C1CCCCC1)S(=O)(=O)c1ccccc1,0.11
2,Cc1ccc(S(=O)(=O)NNc2ccccc2)c(C)c1,-0.0253
3,COc1ccc(NC(=O)Nc2ccc(Cc3ccncc3)cc2)cc1OC,-0.78
4,Cc1ccc2nc(C3CCCN(C(=S)Nc4ccccc4C)C3)[nH]c2c1 (stereo not given),-0.31
5,CC(C)OC(=O)c1c(-c2ccc(C(C)C)cc2)csc1NC(=O)C1CCCO1 (stereo not given),-0.358
6,COc1ccc(-c2cc(C(=O)N3CC4(C)CC3CC(C)(C)C4)no2)cc1 (stereo not given),-0.295
7,COc1ccc(-n2nnc3c(=O)n(CC(=O)N4CCC(C)CC4)cnc32)cc1,-0.0704
8,CCOC(=O)N1CCN(C(=O)C2CCN(S(=O)(=O)c3ccc(Br)s3)CC2)CC1,0.21
9,COc1cccc(OC)c1C(=O)Nc1ccc([N+](=O)[O-])cn1,-0.301
10,Cc1nc([N+](=O)[O-])cn1CC(=O)NCCCO,-0.109
11,CC(=O)c1ccc(NC(=O)CCn2c(=O)oc3ccccc32)cc1,-0.318
12,CCc1cc2c(=O)c(-c3cnn(-c4ccccc4)c3)c(C(F)(F)F)oc2c(CN(C)C)c1O,-0.335
13,Cc1ccc2nc(NC(=O)c3ccc4ncsc4c3)sc2c1,0.195
14,O=[N+]([O-])c1ccc(/C=N/n2c(C3CCCCC3)n[nH]c2=S)cc1,0.116
15,O=C(N/N=C/c1ccc2cccc(OCc3ccccc3)c2n1)c1ccc(Cl)cc1,0.327
16,CCOc1ccc(N2C(=O)CC(Sc3nccc(C)n3)C2=O)cc1 (stereo not given),-0.287
17,Cc1ccc(C)c(OCCCC(=O)Nc2ccc(N3CCOCC3)cc2)c1,0.115
18,CCN(CC)S(=O)(=O)c1ccc(OC)c(NC(=O)C(Cc2ccccc2)N2C(=O)c3ccccc3C2=O)c1 (stereo not given),-0.425
19,Cc1ccc(CC2CC(=O)N(CC(=O)O)C2=O)cc1 (stereo not given),0.135
20,N#CC1(c2ccccc2)CCCN1C(=O)c1ccc(Br)cc1 (stereo not given),-0.587
21,Cc1cc(C)c2c(-n3cccc3)c(NC(=O)OCc3ccccc3)sc2n1,-0.045
22,O=C(O)C1CCCCC1C(=O)NCCc1c[nH]c2ccccc12 (stereo not given),0.809
23,CCn1nc(C)c(NC(=O)/C=C/c2ccc(OC)c(COc3ccc(Cl)cc3Br)c2)c1C,-0.251
24,CCOC(=O)C1CCCN(Cc2ccccc2Cl)C1 (stereo not given),-0.216
25,Cc1scc(C(=O)N/N=C/c2ccco2)c1C,-0.0599
26,O=CN1N=C(c2ccccc2)CC1c1ccccc1[N+](=O)[O-] (stereo not given),-0.461
27,O=C(Nc1cccc(-c2nnc(-c3ccco3)o2)c1)C(c1ccccc1)c1ccccc1,-0.291
28,COc1ccc(-c2nnc(SCC#N)o2)cc1,-0.0515

row,SMILES,z-score
1,Cc1cccc(-n2ccnc2SCC(=O)N2CCCc3ccccc32)c1C,1.72
2,CC(=O)Oc1ccc(C)cc1N1C(=O)c2ccc(C(=O)O)cc2C1=O,-0.326
3,O=C(CSc1nnc(-c2ccc(O)cc2)o1)Nc1ccc2c(c1)OCCO2,0.0475
4,CCCCC(=O)NC(=S)NNC(=O)CC,-0.321
5,Cc1c(C(=O)N2CCc3ccccc3C2)oc2ccc(S(=O)(=O)N3CCCCCC3)cc12,0.0067
6,CCCc1cc(=O)oc2cc(OCC(=O)Nc3cc(C)on3)ccc12,-0.471
7,CCCCC(CC)C(=O)NCC(C)NC(=O)C(CC)CCCC (stereo not given),-0.251
8,CCCc1cc2c(cc1NC(=O)c1ccc(C)cc1)OCO2,-0.173
9,Nc1nc2nc(-c3ccc(Cl)cc3)cc(C(F)(F)F)n2n1,-0.551
10,O=C(NC1CCCCCCC1)C1c2ccccc2C(=O)N1Cc1ccco1 (stereo not given),0.11
11,COc1ccc([N+](=O)[O-])cc1NC(=O)CSc1nc(C)c(C)c(C)n1,-0.557
12,CCN(CC)CCOC(=O)c1ccc(NC(=O)C(C)NC(=O)C23CC4CC(CC(C4)C2)C3)cc1 (stereo not given),0.0121
13,O=C1OC(Nc2ccccn2)c2ccccc21 (stereo not given),0.127
14,COc1cc(NC(=O)c2ccc(Br)o2)ccc1NC(=O)C(C)C,0.351
15,Cc1nc(S(=O)(=O)N2CCOCC2)c(C#N)c(C)c1Cl,-0.442
16,CCN(CC)c1ccc(NC(=O)COC(=O)/C=C/c2nc3ccccc3s2)cc1,0.291
17,Cc1ccc(-n2cc(C(=O)c3ccc4ccccc4c3O)cn2)cc1,0.561
18,COc1ccc(S(=O)(=O)N2CCC(C(=O)NCC3CCCO3)CC2)cc1C (stereo not given),-0.178
19,CCOC(=O)c1[nH]c2ccc(OC)cc2c1NC(=O)c1cccc(OC)c1,-0.567
20,CCOc1ccc(/C=C/C(=O)NCCc2ccc(OC)c(OC)c2)cc1,-0.114
21,S=c1[nH]nc(-c2ccco2)n1/N=C/c1ccc(Cl)c(Cl)c1,1.59
22,CN1CC(=O)N(CC(=O)Nc2ccc(F)cc2)c2ccccc2C1=O,1.12
23,O=C(CSc1nnc(-c2cccnc2)o1)Nc1ccccn1,-0.103
24,CCOC(=O)Cn1c(=O)oc2cc(S(=O)(=O)N3CCN(c4ccccn4)CC3)ccc21,0.514
25,Cc1ccc(Nc2nc(-c3ccc(S(=O)(=O)N4CCOCC4)cc3)cs2)cc1Cl,-0.0144
26,CN(C)S(=O)(=O)c1cccc(NC(=O)CCNC(=O)c2ccccc2Cl)c1,-0.318
27,CCCCC(=O)NC(=S)Nc1ccc(S(=O)(=O)N2CCCC2)cc1,-0.211
